PubChem BioAssay (Tox21)
The inconclusive results got no clear call from the source; some entries with a clear call stand among them for comparison. For some of these results: Potencies of inconclusive entries are doubtful fits and often do not repeat. Active and inactive are the calls of the source. Unless noted, the call rests on the fitted dose curve; in most records, active means well fitted curve in the direction sought with a large enough effect in the repeat runs; inconclusive means weak or mixed curves; inactive means no such curve, though single readings can be large; an effect the other way counts as inactive or inconclusive.

Key:
[1] = qHTS assay to identify small molecule agonists of H2AX (AID 1224845; active means well fitted activation curve with a large enough effect in the signal ratio in the repeat runs, not every such curve was filed as active; inconclusive means weak or mixed curves; the % refers to the signal ratio; on activation (H2AX phosphorylation): on the % scale 0 is the no-effect control and ±100 the full control effect); conditions: CHO-K1 phospho-H2AX Ser139 HTRF, 3 h; activation (H2AX phosphorylation): at 154 µM (top of the series) unless noted
How it was run: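 Phospho-H2AX Ser139 measured by HTRF (ex 320 nm; em 665 and 620 nm) after 24 hr antibody incubation. Compounds, 15 concentrations, 0.76% DMSO, were applied to CHO-K1 cells for 3hr at 37C before lysis.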

[2] = qHTS assay to identify small molecule agonists of the hypoxia (HIF-1) signaling pathway (AID 1224846; active means well fitted activation curve with a large enough effect in the signal ratio in the repeat runs, not every such curve was filed as active; inconclusive means weak or mixed curves; the % refers to the signal ratio; on activation: on the % scale 0 is the no-effect control and ±100 the full control effect); conditions: HRE-bla ME-180 cells, beta-lactamase ratio, 17 h; activation: at 76.8 µM (top of the series) unless noted
How it was run: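 Cell line: CellSensor HRE-bla ME-180; 2,000 cells/well; 0.5% dialyzed FBS; 5 h preincubation; DMSO compound pin transfer; 17 h, 37C, 5% CO2; CCF4-AM added; bla FRET signal scored for activation.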

[3] = qHTS assay to identify small molecule agonists of H2AX - cell viability counter screen (AID 1224847; calls by dose curve; further: nearly all actives have a fitted effect of over 30% in size)
How it was run: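 Cytotoxicity counter screen in wild-type CHO-K1 cells: a 3 hr compound treatment at 37C across 15 concentrations, followed by CellTiter-Glo luminescence to gauge viable cells.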

[4] = A CellTox Green Cytotoxicity Assay to monitor cytotoxicity in HEK293 cells - 40 hour (AID 1224871); further: nearly all actives have a fitted effect of over 45% in size
How it was run: (§1)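 Nonlytic real-time cytotoxicity: HEK293 + CellTox Green reagent plated, 5 h preincubation, pintool compound addition (23 nL in DMSO), 37 C for 40 h, fluorescence measured at successive time points.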

[5] = A CellTox Green Cytotoxicity Assay to monitor cytotoxicity in HEK293 cells - 24 hour (AID 1224875); further: nearly all actives have a fitted effect of over 45% in size
How it was run: as §1

[6] = A CellTox Green Cytotoxicity Assay to monitor cytotoxicity in HEK293 cells - 32 hour (AID 1224881); further: nearly all actives have a fitted effect of over 40% in size
How it was run: as §1

[7] = qHTS assay to identify small molecule antagonists of the estrogen related receptor (ERR) signaling pathway from Tox21 library (AID 1224848); further: nearly all actives have a fitted effect of over 50% in size
How it was run: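 Reading was by luminescence 30 min after ONE-Glo addition. Before that, ERR cells at 2,000 per well had rested 6 h at 37 C/5% CO2 and then received pin-tooled compounds in DMSO for 18 h at 37 C.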

[8] = qHTS RealTime-Glo MT Cell Viability Assay in HEK293 cells - 32 hour (AID 1224868); further: nearly all actives have a fitted effect of over 50% in size
How it was run: (§2)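 Cells + reagent dispensed (600 cells/well, HEK293) → 5 h at 37 C/5% CO2 → 23 nL compound in DMSO pinned → 40 h at 37 C → luminescence read at 0, 8, 16, 24, 32, 40 h.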

[9] = qHTS RealTime-Glo MT Cell Viability Assay in HepG2 cells - 40 hour (AID 1224870); further: nearly all actives have a fitted effect of over 50% in size
How it was run: (§3)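 Real-time viability: cells seeded at 600 per well together with NanoLuc and cell-permeant prosubstrate, compounds added after 5 h incubation. Luminescence tracked at 0, 8, 16, 24, 32 and 40 h of exposure.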

[10] = qHTS RealTime-Glo MT Cell Viability Assay in HEK293 cells - 16 hour (AID 1224872); further: nearly all actives have a fitted effect of over 50% in size
How it was run: as §2

[11] = qHTS RealTime-Glo MT Cell Viability Assay in HEK293 cells - 40 hour (AID 1224874); conditions: RealTime-Glo luminescence; max response: stronger effect = lower value; further: nearly all actives have a fitted effect of over 50% in size
How it was run: (§4)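 Cells were seeded together with NanoLuc luciferase and a prosubstrate that viable cells reduce to a luciferase substrate. After a 5 h incubation at 37 C/5% CO2, compounds were added and luminescence was measured repeatedly during 40 h of treatment.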

[12] = A CellTox Green Cytotoxicity Assay to monitor cytotoxicity in HepG2 cells - 24 hour (AID 1224878); further: nearly all actives have a fitted effect of over 45% in size; on Cytotoxicity: on the % scale 0 is the no-effect control and ±100 the full control effect
How it was run: (§5)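 Read-out is fluorescence of a cyanine dye excluded from live cells that stains DNA of dead HepG2 cells, with signal proportional to cytotoxicity. Plates were read at 0, 8, 16, 24, 32 and 40 h after compound addition.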

[13] = qHTS RealTime-Glo MT Cell Viability Assay in HepG2 cells - 24 hour (AID 1224867); further: nearly all actives have a fitted effect of over 50% in size
How it was run: (§6)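 Real-time, nonlytic viability: 600 HepG2 cells/well mixed with NanoLuc enzyme plus prosubstrate; 5 h settle, compound (DMSO) added by pintool; luminescence monitored over 40 h at 37 C.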

[14] = qHTS RealTime-Glo MT Cell Viability Assay in HepG2 cells - 8 hour (AID 1224873); further: nearly all actives have a fitted effect of over 55% in size
How it was run: as §3

[15] = qHTS RealTime-Glo MT Cell Viability Assay in HepG2 cells - 32 hour (AID 1224877); further: nearly all actives have a fitted effect of over 55% in size
How it was run: as §6

[16] = A CellTox Green Cytotoxicity Assay to monitor cytotoxicity in HepG2 cells - 40 hour (AID 1224879); further: nearly all actives have a fitted effect of over 40% in size
How it was run: as §5

[17] = qHTS RealTime-Glo MT Cell Viability Assay in HEK293 cells - 0 hour (AID 1224880); further: nearly all actives have a fitted effect of over 45% in size
How it was run: as §4
Potency means the concentration at half of the fitted maximal effect; tags describe the fitted curve by direction and shape or compound fluorescence and quenching.

CC(=O)CC(c1ccccc1)c1c(O)c2ccccc2oc1=O (stereo not drawn)
inactive: Potency [2] | Potency [3]
inconclusive: activation (H2AX phosphorylation) [1] -5.28% | Potency [4] 24.6 µM [activator, single point] | Potency [5] 22 µM [activator, single point] | Potency [6] 22 µM [activator, single point]

CN1CCN(CCC(=O)N2c3ccccc3Sc3ccc(C(F)(F)F)cc32)CC1
inactive: Potency [2]
active: Potency [12] 15.1 µM
inconclusive: Potency [1] 61.9 µM [activator, single point] | Potency [7] 33.5 µM [inhibitor, single point] | Potency [8] 26.8 µM [cytotoxic, single point] | Potency [9] 26.8 µM [falling, single point] | Potency [4] 26.8 µM [activator, single point] | Potency [10] 26.8 µM [cytotoxic, single point] | Potency [11] 26.8 µM [cytotoxic, single point] | Potency [5] 26.8 µM [activator, single point] | Potency [6] 26.8 µM [activator, single point]

Oc1cccc(-c2c3nc(c(-c4cccc(O)c4)c4ccc([nH]4)c(-c4cccc(O)c4)c4nc(c(-c5cccc(O)c5)c5ccc2[nH]5)CC4)C=C3)c1
active: Potency [10] 23.9 µM
inconclusive: Potency [1] 61.9 µM [falling, single point] | Potency [2] 9.52 µM [falling, partial curve] | Potency [3] 49.2 µM [cytotoxic, partial curve] | Potency [13] 30.1 µM [falling, partial curve, poor fit] | Potency [8] 23.9 µM [cytotoxic, partial curve] | Potency [14] 23.9 µM [falling, single point] | Potency [11] 23.9 µM [cytotoxic, partial curve]
inactive: Potency [12]

CNC(=O)c1cc(Oc2ccc(NC(=O)Nc3ccc(Cl)c(C(F)(F)F)c3)cc2)ccn1
active: Potency [8] 3.01 µM
inconclusive: activation (H2AX phosphorylation) [1] 10% [at 70.9 µM] | Potency [2] 7.56 µM [falling, partial curve] | Potency [3] 61.9 µM [cytotoxic, single point] | Potency [13] 19 µM [falling, partial curve] | Potency [9] 23.9 µM [falling, partial curve] | Potency [15] 21.3 µM [cytotoxic, partial curve] | Potency [16] 5.35 µM [activator, partial curve, poor fit]
inactive: Potency [4]

CCCCC/C=C\C=C\C(=O)OCC
inactive: Potency [3]
active: Potency [1] 59 µM | Potency [11] 57.2 µM
inconclusive: Potency [2] 57.2 µM [single point] | Potency [13] 45.5 µM [falling, partial curve] | Potency [8] 57.2 µM [cytotoxic, single point] | Potency [10] 51 µM [cytotoxic, single point] | Potency [15] 45.5 µM [cytotoxic, partial curve] | Potency [6] 18.1 µM [activator, full curve, poor fit]

O=C(CCN1CCC(c2ccccc2)C1)c1ccc2c(c1)OCCO2 (stereo not drawn)
inconclusive: Potency [1] 55.2 µM [activator] | Potency [2] 26.8 µM [single point] | Potency [13] 26.8 µM [falling, single point] | Potency [8] 30.1 µM [cytotoxic, single point] | Potency [4] 26.8 µM [activator, single point] | Potency [10] 26.8 µM [cytotoxic, single point] | Potency [11] 30.1 µM [cytotoxic, single point] | Potency [15] 26.8 µM [cytotoxic, single point] | Potency [12] 26.8 µM [activator, partial curve, poor fit] | Potency [6] 26.8 µM [activator, single point]

CO[C@H]1C=CO[C@@]2(C)Oc3c(C)c(O)c4c(O)c(cc(O)c4c3C2=O)NC(=O)/C(C)=C\C=C/[C@H](C)[C@H](O)[C@@H](C)[C@@H](O)[C@@H](C)[C@H](OC(C)=O)[C@@H]1C
active: Potency [17] 17.5 µM
inconclusive: Potency [1] 57.1 µM [cytotoxic, partial curve] | Potency [2] 49.3 µM [falling, partial curve] | Potency [7] 61.6 µM [inhibitor]
